Experimental data published in the supplement of paper PMC8728848.
The list shows a part of the results.

Tests used:
Assay in all cases: glycan array binding signal (z-score within array); higher = stronger binding
Settings in all cases: glycan notation: IUPAC condensed, linker removed
[1] = biological target: Neu5Ac(a2-3)Gal(b1-4)GlcNAc(b1-3)[Neu5Ac(a2-3)Gal(b1-4)GlcNAc(b1-6)]GalNAc
In short: (§1)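 From the Consortium for Functional Glycomics database, 3228 arrays were curated, keeping only those whose protein sequence was available. Binding is given as a within-array Z-score averaged across arrays sharing a protein sequence and across linkers. Negative Z-scores can be read as non-binding.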

[2] = biological target: Neu5Ac(a2-3)Gal(b1-4)GlcNAc(b1-6)GalNAc
In short: as §1

[3] = biological target: Neu5Ac(a2-3)Gal(b1-4)GlcNAc(b1-6)[Gal(b1-3)]GalNAc
In short: as §1

[4] = biological target: Neu5Ac(a2-3)Gal(b1-4)GlcNAc(b1-6)[Neu5Ac(a2-3)Gal(b1-3)]GalNAc
In short: as §1

[5] = biological target: Neu5Ac(a2-3)Gal(b1-4)GlcNAc6S
In short: as §1

[6] = biological target: Neu5Ac(a2-3)Gal(b1-4)[Fuc(a1-3)]GlcNAc
In short: as §1

[7] = biological target: Neu5Ac(a2-3)Gal(b1-4)[Fuc(a1-3)]GlcNAc(b1-2)Man
In short: as §1

[8] = biological target: Neu5Ac(a2-3)Gal(b1-4)[Fuc(a1-3)]GlcNAc(b1-3)Gal
In short: as §1

[9] = biological target: Neu5Ac(a2-3)Gal(b1-4)[Fuc(a1-3)]GlcNAc(b1-3)Gal(b1-4)GlcNAc
In short: as §1

[10] = biological target: Neu5Ac(a2-3)Gal(b1-4)[Fuc(a1-3)]GlcNAc(b1-3)Gal(b1-4)[Fuc(a1-3)]GlcNAc(b1-3)Gal(b1-4)[Fuc(a1-3)]GlcNAc
In short: as §1

[11] = biological target: Neu5Ac(a2-3)Gal(b1-4)[Fuc(a1-3)]GlcNAc(b1-3)GalNAc
In short: as §1

[12] = biological target: Neu5Ac(a2-3)Gal(b1-4)[Fuc(a1-3)]GlcNAc(b1-6)[Gal(b1-3)]GalNAc
In short: as §1

[13] = biological target: Neu5Ac(a2-3)Gal(b1-4)[Fuc(a1-3)]GlcNAc(b1-6)[Neu5Ac(a2-3)Gal(b1-3)]GalNAc
In short: as §1

[14] = biological target: Neu5Ac(a2-3)Gal(b1-4)[Fuc(a1-3)]GlcNAc6S
In short: as §1

[15] = biological target: Neu5Ac(a2-3)Gal6S(b1-4)GlcNAc
In short: as §1

[16] = biological target: Neu5Ac(a2-3)Gal6S(b1-4)[Fuc(a1-3)]GlcNAc
In short: as §1

Neu5Ac(a2-3)GalNAc = biological target: Neu5Ac(a2-3)GalNAc
In short: as §1

[17] = biological target: Neu5Ac(a2-3)GalNAc(b1-4)GlcNAc
In short: as §1

[18] = biological target: Neu5Ac(a2-3)[GalNAc(b1-4)]Gal(b1-4)Glc
In short: as §1

[19] = biological target: Neu5Ac(a2-3)[GalNAc(b1-4)]Gal(b1-4)GlcNAc
In short: as §1

[20] = biological target: Neu5Ac(a2-3)[GalNAc(b1-4)]Gal(b1-4)GlcNAc(b1-3)GalNAc
In short: as §1

[21] = biological target: Neu5Ac(a2-3)[Neu5Ac(a2-6)]GalNAc
In short: as §1

Neu5Ac(a2-6)Gal = biological target: Neu5Ac(a2-6)Gal
In short: as §1

B1: Banana lectin (Musa acuminata) (protein)
chain: MNGAIKVGAWGGNGGSAFDMGPAYRIISVKIFSGDVVDAVDVTFTYYGKTETRHFGGSGGTPHEIVLQEGEYLVGMKGEFGNYHGVVVVGKLGFSTNKKSYGPFGNTGGTPFSLPIAAGKISGFFGRGGDFIDAIGVYLEP
[1]
  glycan array binding signal (z-score): -0.193
[2]
  glycan array binding signal (z-score): -0.189
[3]
  glycan array binding signal (z-score): -0.193
[4]
  glycan array binding signal (z-score): -0.194
[5]
  glycan array binding signal (z-score): -0.193
[6]
  glycan array binding signal (z-score): -0.195
[7]
  glycan array binding signal (z-score): -0.193
[8]
  glycan array binding signal (z-score): -0.196
[9]
  glycan array binding signal (z-score): -0.186
[10]
  glycan array binding signal (z-score): -0.168
[11]
  glycan array binding signal (z-score): -0.175
[12]
  glycan array binding signal (z-score): -0.191
[13]
  glycan array binding signal (z-score): -0.184
[14]
  glycan array binding signal (z-score): -0.195
[15]
  glycan array binding signal (z-score): -0.196
[16]
  glycan array binding signal (z-score): -0.194
Neu5Ac(a2-3)GalNAc
  glycan array binding signal (z-score): -0.193
[17]
  glycan array binding signal (z-score): -0.193
[18]
  glycan array binding signal (z-score): -0.193
[19]
  glycan array binding signal (z-score): -0.194
[20]
  glycan array binding signal (z-score): -0.199
[21]
  glycan array binding signal (z-score): -0.193
Neu5Ac(a2-6)Gal
  glycan array binding signal (z-score): -0.193
